Test results as given in the supplement of paper PMC8728848.
The other results are listed elsewhere or left out.

What was measured:
Test in all cases: glycan array binding signal (z-score within array); higher = stronger binding
Details in all cases: glycan notation: IUPAC condensed, linker removed
[1] = biological target: Fuc(a1-2)Gal
Procedure, shortened: (§1)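 Arrays were curated from the Consortium for Functional Glycomics database, 3228 in total, and kept only where the protein sequence was available. Binding is expressed as a within-array Z-score. This score was averaged across arrays of the same protein sequence at different concentrations or buffers and across linkers, and negative values can be read as non-binding.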

[2] = biological target: Fuc(a1-2)Gal(b1-3)GalNAc
Procedure, shortened: as §1

[3] = biological target: Fuc(a1-2)Gal(b1-3)GalNAc(b1-3)Gal
Procedure, shortened: as §1

[4] = biological target: Fuc(a1-2)Gal(b1-3)GalNAc(b1-3)Gal(a1-4)Gal(b1-4)Glc
Procedure, shortened: as §1

[5] = biological target: Fuc(a1-2)Gal(b1-3)GalNAc(b1-4)[Neu5Ac(a2-3)]Gal(b1-4)Glc
Procedure, shortened: as §1

[6] = biological target: Fuc(a1-2)Gal(b1-3)GlcNAc
Procedure, shortened: as §1

[7] = biological target: Fuc(a1-2)Gal(b1-3)GlcNAc(b1-3)Gal(b1-4)Glc
Procedure, shortened: as §1

[8] = biological target: Fuc(a1-2)Gal(b1-3)[Fuc(a1-4)]GlcNAc
Procedure, shortened: as §1

[9] = biological target: Fuc(a1-2)Gal(b1-4)Glc
Procedure, shortened: as §1

[10] = biological target: Fuc(a1-2)Gal(b1-4)Glc6S
Procedure, shortened: as §1

[11] = biological target: Fuc(a1-2)Gal(b1-4)GlcNAc
Procedure, shortened: as §1

[12] = biological target: Fuc(a1-2)Gal(b1-4)GlcNAc(b1-3)Gal(b1-4)GlcNAc
Procedure, shortened: as §1

[13] = biological target: Fuc(a1-2)Gal(b1-4)GlcNAc(b1-3)Gal(b1-4)GlcNAc(b1-3)Gal(b1-4)GlcNAc
Procedure, shortened: as §1

[14] = biological target: Fuc(a1-2)Gal(b1-4)GlcNAc6S
Procedure, shortened: as §1

[15] = biological target: Fuc(a1-2)Gal(b1-4)[Fuc(a1-3)]GlcNAc
Procedure, shortened: as §1

[16] = biological target: Fuc(a1-2)Gal(b1-4)[Fuc(a1-3)]GlcNAc(b1-3)Gal(b1-4)[Fuc(a1-3)]GlcNAc
Procedure, shortened: as §1

[17] = biological target: Fuc(a1-2)Gal(b1-4)[Fuc(a1-3)]GlcNAc(b1-3)Gal(b1-4)[Fuc(a1-3)]GlcNAc(b1-3)Gal(b1-4)[Fuc(a1-3)]GlcNAc
Procedure, shortened: as §1

[18] = biological target: Fuc(a1-2)Gal6S(b1-4)Glc
Procedure, shortened: as §1

[19] = biological target: Fuc(a1-2)Gal6S(b1-4)Glc6S
Procedure, shortened: as §1

[20] = biological target: Fuc(a1-2)Gal6S(b1-4)GlcNAc
Procedure, shortened: as §1

[21] = biological target: Fuc(a1-2)[Gal(a1-3)]Gal
Procedure, shortened: as §1

[22] = biological target: Fuc(a1-2)[Gal(a1-3)]Gal(b1-3)GlcNAc
Procedure, shortened: as §1

[23] = biological target: Fuc(a1-2)[Gal(a1-3)]Gal(b1-4)Glc
Procedure, shortened: as §1

[24] = biological target: Fuc(a1-2)[Gal(a1-3)]Gal(b1-4)GlcNAc
Procedure, shortened: as §1

[25] = biological target: Fuc(a1-2)[Gal(a1-3)]Gal(b1-4)[Fuc(a1-3)]GlcNAc
Procedure, shortened: as §1

[26] = biological target: Fuc(a1-2)[Gal(a1-4)]Gal(b1-4)GlcNAc
Procedure, shortened: as §1

[27] = biological target: Fuc(a1-2)[GalNAc(a1-3)]Gal
Procedure, shortened: as §1

[28] = biological target: Fuc(a1-2)[GalNAc(a1-3)]Gal(b1-3)GlcNAc
Procedure, shortened: as §1

[29] = biological target: Fuc(a1-2)[GalNAc(a1-3)]Gal(b1-4)Glc
Procedure, shortened: as §1

[30] = biological target: Fuc(a1-2)[GalNAc(a1-3)]Gal(b1-4)GlcNAc
Procedure, shortened: as §1

B1: Factor H (Homo sapiens), P08603 (protein)
chain: MRLLAKIICLMLWAICVAEDCNELPPRRNTEILTGSWSDQTYPEGTQAIYKCRPGYRSLGNVIMVCRKGEWVALNPLRKCQKRPCGHPGDTPFGTFTLTGGNVFEYGVKAVYTCNEGYQLLGEINYRECDTDGWTNDIPICEVVKCLPVTAPENGKIVSSAMEPDREYHFGQAVRFVCNSGYKIEGDEEMHCSDDGFWSKEKPKCVEISCKSPDVINGSPISQKIIYKENERFQYKCNMGYEYSERGDAVCTESGWRPLPSCEEKSCDNPYIPNGDYSPLRIKHRTGDEITYQCRNGFYPATRGNTAKCTSTGWIPAPRCTLKPCDYPDIKHGGLYHENMRRPYFPVAVGKYYSYYCDEHFETPSGSYWDHIHCTQDGWSPAVPCLRKCYFPYLENGYNQNYGRKFVQGKSIDVACHPGYALPKAQTTVTCMENGWSPTPRCIRVKTCSKSSIDIENGFISESQYTYALKEKAKYQCKLGYVTADGETSGSITCGKDGWSAQPTCIKSCDIPVFMNARTKNDFTWFKLNDTLDYECHDGYESNTGSTTGSIVCGYNGWSDLPICYERECELPKIDVHLVPDRKKDQYKVGEVLKFSCKPGFTIVGPNSVQCYHFGLSPDLPICKEQVQSCGPPPELLNGNVKEKTKEEYGHSEVVEYYCNPRFLMKGPNKIQCVDGEWTTLPVCIVEESTCGDIPELEHGWAQLSSPPYYYGDSVEFNCSESFTMIGHRSITCIHGVWTQLPQCVAIDKLKKCKSSNLIILEEHLKNKKEFDHNSNIRYRCRGKEGWIHTVCINGRWDPEVNCSMAQIQLCPPPPQIPNSHNMTTTLNYRDGEKVSVLCQENYLIQEGEEITCKDGRWQSIPLCVEKIPCSQPPQIEHGTINSSRSSQESYAHGTKLSYTCEGGFRISEENETTCYMGKWSSPPQCEGLPCKSPPEISHGVVAHMSDSYQYGEEVTYKCFEGFGIDGPAIAKCLGEKWSHPPSCIKTDCLSLPSFENAIPMGEKKDVYKAGEQVTYTCATYYKMDGASNVTCINSRWTGRPTCRDTSCVNPPTVQNAYIVSRQMSKYPSGERVRYQCRSPYEMFGDEEVMCLNGNWTEPPQCKDSTGKCGPPPPIDNGDITSFPLSVYAPASSVEYQCQNLYQLEGNKRITCRNGQWSEPPKCLHPCVISREIMENYNIALRWTAKQKLYSRTGESVEFVCKRGYRLSSRSHTLRTTCWDGKLEYPTCAKR
- glycan array binding signal (z-score) [1]: -0.396
- glycan array binding signal (z-score) [2]: 1.03
- glycan array binding signal (z-score) [3]: 3.46
- glycan array binding signal (z-score) [4]: 0.586
- glycan array binding signal (z-score) [5]: 0.238
- glycan array binding signal (z-score) [6]: 0.681
- glycan array binding signal (z-score) [7]: -0.503
- glycan array binding signal (z-score) [8]: 0.167
- glycan array binding signal (z-score) [9]: 0.793
- glycan array binding signal (z-score) [10]: -0.096
- glycan array binding signal (z-score) [11]: 3.15
- glycan array binding signal (z-score) [12]: 0.038
- glycan array binding signal (z-score) [13]: -0.118
- glycan array binding signal (z-score) [14]: -0.485
- glycan array binding signal (z-score) [15]: 0.106
- glycan array binding signal (z-score) [16]: 0.26
- glycan array binding signal (z-score) [17]: -0.325
- glycan array binding signal (z-score) [18]: -0.566
- glycan array binding signal (z-score) [19]: 0.154
- glycan array binding signal (z-score) [20]: -0.529
- glycan array binding signal (z-score) [21]: -0.294
- glycan array binding signal (z-score) [22]: 0.366
- glycan array binding signal (z-score) [23]: -0.526
- glycan array binding signal (z-score) [24]: -0.084
- glycan array binding signal (z-score) [25]: 0.224
- glycan array binding signal (z-score) [26]: -0.137
- glycan array binding signal (z-score) [27]: -0.477
- glycan array binding signal (z-score) [28]: 0.354
- glycan array binding signal (z-score) [29]: -0.381
- glycan array binding signal (z-score) [30]: 0.018
